Results from PMC4336329 (PLoS ONE, 2015).
Among all 310,000 compounds or so, about 2,200 (0.71%) showed an effect of 50% or more. The effect is printed as a negative number. This is one part of the list.

These compounds were tested against human ether-à-go-go-related gene (hERG) potassium channel (human, UniProt Q12809) (assay: primary screen, population patch clamp on CHO cells stably expressing hERG).
Sequence of human ether-à-go-go-related gene (hERG) potassium channel (Q12809 whole entry, looked up): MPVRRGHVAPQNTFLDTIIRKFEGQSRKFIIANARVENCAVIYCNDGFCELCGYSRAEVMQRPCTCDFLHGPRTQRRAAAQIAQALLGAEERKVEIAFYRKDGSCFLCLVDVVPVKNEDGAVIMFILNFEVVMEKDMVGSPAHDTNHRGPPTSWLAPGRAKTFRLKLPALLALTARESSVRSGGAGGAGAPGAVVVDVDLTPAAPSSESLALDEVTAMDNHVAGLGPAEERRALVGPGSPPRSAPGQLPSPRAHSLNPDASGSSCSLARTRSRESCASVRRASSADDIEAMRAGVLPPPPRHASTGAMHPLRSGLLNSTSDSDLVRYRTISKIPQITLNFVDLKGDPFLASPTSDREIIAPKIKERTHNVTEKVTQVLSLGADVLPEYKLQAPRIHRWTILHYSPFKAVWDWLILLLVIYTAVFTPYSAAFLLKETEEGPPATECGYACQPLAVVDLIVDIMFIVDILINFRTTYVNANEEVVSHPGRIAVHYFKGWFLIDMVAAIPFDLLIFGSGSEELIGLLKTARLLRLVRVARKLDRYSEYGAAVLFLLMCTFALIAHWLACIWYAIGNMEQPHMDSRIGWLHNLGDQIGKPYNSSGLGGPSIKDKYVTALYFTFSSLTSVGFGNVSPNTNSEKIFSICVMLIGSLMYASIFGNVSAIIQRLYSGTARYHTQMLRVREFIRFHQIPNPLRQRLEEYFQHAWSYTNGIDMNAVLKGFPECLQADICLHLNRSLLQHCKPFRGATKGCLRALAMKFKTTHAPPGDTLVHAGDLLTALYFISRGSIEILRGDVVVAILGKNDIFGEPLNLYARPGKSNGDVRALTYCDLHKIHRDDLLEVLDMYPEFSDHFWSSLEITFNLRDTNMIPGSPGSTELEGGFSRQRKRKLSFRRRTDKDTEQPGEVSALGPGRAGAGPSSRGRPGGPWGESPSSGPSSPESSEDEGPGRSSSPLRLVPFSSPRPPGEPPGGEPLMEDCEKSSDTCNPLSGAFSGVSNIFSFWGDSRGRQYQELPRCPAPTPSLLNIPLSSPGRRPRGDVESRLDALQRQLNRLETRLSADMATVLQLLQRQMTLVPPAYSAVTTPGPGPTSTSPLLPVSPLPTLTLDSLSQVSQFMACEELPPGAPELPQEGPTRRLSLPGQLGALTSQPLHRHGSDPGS

Compound	hERG current change (%, negative = inhibition) at 1uM [%]
COc1cccc(-c2cc(C(=O)Nc3ccc([N+](=O)[O-])cn3)c3ccccc3n2)c1	-20.7
COCCSc1nnc(NC(=O)CS(=O)(=O)c2ccccc2)s1	13.8
COc1ccc(OC)c(-n2nnnc2SCC(=O)NCc2ccc3c(c2)OCO3)c1	-2.98
O=C(COC(=O)/C=C/c1ccccc1[N+](=O)[O-])NC1CCS(=O)(=O)C1 (centres unmarked)	12.5
CC(NC(=O)CNC(=O)c1sc2ccccc2c1Cl)c1cccnc1 (centres unmarked)	11.1
COc1cc(OC)c(NC2=CC(=O)C(=O)c3ccccc32)cc1Cl	13.6
CC1CCN(CCCCOc2cccc(Br)c2)CC1.O=C(O)C(=O)O	-47.8
O=C(Cn1cc(S(=O)(=O)Cc2ccccc2)c2ccccc21)N1CCOCC1	12.2
Cc1cccc(-c2cc3c(N=O)c4ccccc4c-3n[nH]2)c1	16.9
COc1ccc(-n2nc(C(=O)Nc3ccc(OC)c(OC)c3)c3c4ccccc4n(C)c3c2=O)cc1	7.44
O=C(c1c(F)c(F)c(F)c(F)c1F)N1CCc2ccccc21	18.5
Cc1ccc(S(=O)(=O)n2c(N)nc3ccccc32)cc1	11.3
Cc1ccccc1NC(=O)C1Cc2ccccc2CN1C(=O)OCc1ccccc1 (centres unmarked)	11.6
COc1ccc(-c2n[nH]c(=S)n2-c2ccc3c(c2)OCCO3)cc1	7
CCOc1ccc(N2C(=O)Nc3ccccc3C2(O)C(=O)NCc2ccco2)cc1 (centres unmarked)	1.3
CCCCN1CC(=O)N2[C@H]3c4ccc(OC)cc4OC[C@@H]3[C@H](c3ccccc3)[C@]2(C)C1=O	6.54
COc1ccc(NC(=O)C2C3CCC(O3)C2C(=O)O)c(OC)c1 (centres unmarked)	21.5
CCc1nc2c(C#N)c(-c3ccc(Cl)cc3)ccn2n1	6.82
S=C(NCc1ccco1)N1CCC(c2nc3ccccc3o2)CC1	3.86
CN(Cc1ccc(F)cc1)S(=O)(=O)c1nnc(NC(=O)c2ccccc2Br)s1	13.6
COC(=O)CNC(=O)c1cn(CC(C)C)c(=O)c2cc(OC)c(OC)cc12	-1.19
COc1cccc(NC(=O)COc2ccc(Br)c(C)c2)c1	17.7

Compound	hERG current change (%, negative = inhibition) at 1uM [%]
CC1=C(C(=O)OC(C)C)C(c2ccccn2)n2ncnc2N1 (centres unmarked)	4.25
O=c1c2cnn(-c3ccccc3)c2ncn1Cc1ccccn1	14.1
O=C(NCCCCCCNC(=O)OC1CCS(=O)(=O)C1)OC1CCS(=O)(=O)C1 (centres unmarked)	13.4
N#C/C(=C/c1ccc(N2CCOCC2)o1)c1ccc(Cl)cc1	2.32
CCCN(Cc1cc2cc(OC)ccc2[nH]c1=O)C(=O)c1ccco1	-0.0107
CCOc1ccc(OCCCCN2CCCC2)cc1.O=C(O)C(=O)O	11.6
CCN(CC)CC(=O)c1c[nH]c2ccccc12	6.08
COc1ccccc1C(=O)Nc1ccccc1N1CCCCC1	5.41
CC(C)(C)C1CCc2[nH]nc(C(=O)O)c2C1 (centres unmarked)	15.2
COc1ccc(NC(=S)NC(=O)/C=C/c2cccs2)cc1	12.9
O=C(Nc1ccc(N2CCCCC2)c(Cl)c1)c1ccc(N2CCOCC2)c([N+](=O)[O-])c1	13.3
Cc1ccc(-n2c(COc3cccc(C)c3)n[nH]c2=S)cc1	3.06
O=C(Nc1cccc(-c2ccc3nncn3n2)c1)c1ccco1	6.16
CCCC(=O)C1=C(O)C(C(=O)OC)C(C)(C)CC1=N (centres unmarked)	10.3
CN(C(=O)CSC(=O)c1ccccc1)c1ccccc1	29.5
COc1ccc(CN2CCN(C(=O)c3ccco3)CC2)cc1OC.O=C(O)C(=O)O	20
COc1ccccc1NS(=O)(=O)c1cccc(C(=O)NCC2(N(C)C)CCCCC2)c1	1.73
O=C(NCCN1C(=O)S/C(=C\c2cccnc2)C1=O)c1cccc(OC(F)F)c1	0.344
CSc1nc(-c2ccco2)nn1C(=O)c1ccccc1	12.7
CCn1ccnc1CN1CCC(n2nccc2NC(=O)CCc2ccccc2)CC1	15.9
O=C(CCN1C(=O)c2ccccc2C1=O)Nn1cnnc1	3.03
C=CCN1C(=O)CN=C1Nc1cc(C)ccc1C.Cl	7.51
